Measured values published in paper PMC4336329 (PLoS ONE, 2015).
Hit rate of the full screen: of about 310,000 compounds, about 2,200 (0.71%) showed an effect of 50% or more. The effect is printed as a negative number. The list shows a part of the results.

Target: human ether-à-go-go-related gene (hERG) potassium channel (human, UniProt Q12809)
Test: primary screen, population patch clamp on CHO cells stably expressing hERG

human ether-à-go-go-related gene (hERG) potassium channel, sequence (Q12809 whole entry, looked up): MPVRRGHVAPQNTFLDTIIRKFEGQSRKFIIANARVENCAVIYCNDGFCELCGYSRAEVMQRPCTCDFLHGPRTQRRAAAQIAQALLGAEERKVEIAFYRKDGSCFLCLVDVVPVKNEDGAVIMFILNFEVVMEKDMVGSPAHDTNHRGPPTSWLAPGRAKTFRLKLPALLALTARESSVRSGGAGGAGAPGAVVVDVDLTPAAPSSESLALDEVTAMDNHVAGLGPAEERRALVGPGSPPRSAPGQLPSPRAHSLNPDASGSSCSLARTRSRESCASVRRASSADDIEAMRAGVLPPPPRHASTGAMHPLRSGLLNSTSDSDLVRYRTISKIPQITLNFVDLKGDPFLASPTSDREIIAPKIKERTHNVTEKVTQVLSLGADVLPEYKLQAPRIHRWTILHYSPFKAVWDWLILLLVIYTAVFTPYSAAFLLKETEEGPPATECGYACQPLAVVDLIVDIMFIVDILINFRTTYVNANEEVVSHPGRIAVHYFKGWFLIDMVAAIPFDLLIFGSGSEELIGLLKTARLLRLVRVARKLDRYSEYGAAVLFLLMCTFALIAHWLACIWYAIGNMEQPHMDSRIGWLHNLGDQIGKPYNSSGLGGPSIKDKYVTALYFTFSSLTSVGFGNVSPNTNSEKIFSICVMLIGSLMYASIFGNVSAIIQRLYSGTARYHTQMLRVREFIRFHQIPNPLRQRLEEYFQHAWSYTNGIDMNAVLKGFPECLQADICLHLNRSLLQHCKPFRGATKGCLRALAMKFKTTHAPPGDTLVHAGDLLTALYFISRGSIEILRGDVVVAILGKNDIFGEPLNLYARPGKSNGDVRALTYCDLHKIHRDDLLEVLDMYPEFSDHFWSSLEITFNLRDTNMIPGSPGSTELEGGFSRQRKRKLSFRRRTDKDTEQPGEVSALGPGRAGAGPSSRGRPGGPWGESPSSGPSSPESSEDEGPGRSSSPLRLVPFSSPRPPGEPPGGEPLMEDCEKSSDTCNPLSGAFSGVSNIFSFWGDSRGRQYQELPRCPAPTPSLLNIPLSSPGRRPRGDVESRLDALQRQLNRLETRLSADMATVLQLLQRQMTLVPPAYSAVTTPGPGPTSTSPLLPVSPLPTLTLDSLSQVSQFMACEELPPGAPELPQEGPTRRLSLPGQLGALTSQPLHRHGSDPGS

Compared with `CCSc1ccc2nnc(-c3ccc(F)cc3)n2n1`, `Cc1c(Cl)cccc1NC(=S)NCCc1ccc(F)cc1` is higher in “hERG current change (%, negative = inhibition) at 1uM” value: -0.949% for the first, 15.3% for the second.

Going from `CCc1nnc2n1N=C(c1ccc(OC)cc1)CS2` to `COc1ccc(-c2cc(C3CCN(Cc4ccc([N+](=O)[O-])cc4)CC3)[nH]n2)cc1`, the “hERG current change (%, negative = inhibition) at 1uM” value falls from -4.57% to -44.3%.

First: CCCC[N+]1(C)C2CC(OC(=O)C(CO)c3ccccc3)CC1C1OC12.[Br-] (stereo not shown)
Second: COC(=O)C1=C(c2ccccc2)C[C@@H]2CC[C@H]1N2C(=O)NCCCOC(C)C
The “hERG current change (%, negative = inhibition) at 1uM” value of the first is higher: 11.9% for the first, 9.24% for the second.

First: O=C(N[C@H]1CC1c1ccccc1)c1ccc([N+](=O)[O-])cc1 (stereo partly shown)
Second: CNC(=O)CN(Cc1ccccc1)S(=O)(=O)c1ccc(Cl)cc1
The “hERG current change (%, negative = inhibition) at 1uM” value of the first is lower: 7.34% for the first, 7.88% for the second.

Compared with `Cc1onc(C(=O)/C=C/N(C)C)c1C(=O)Nc1nccs1`, `O=C(O)c1sccc1NC(=O)c1c(Cl)cccc1Cl` is lower in “hERG current change (%, negative = inhibition) at 1uM” value: 12.4% for the first, 4% for the second.

Compared with `COc1cccc(C(c2nnnn2Cc2ccccc2)N2CCN(C(=O)c3ccco3)CC2)c1OC` (stereo not shown), `COc1ccc(OC)c2c(C)cc(N3CCN(C(=O)c4ccc(F)cc4)CC3)nc12` is higher in “hERG current change (%, negative = inhibition) at 1uM” value: -7.66% for the first, 13.7% for the second.

Going from `CN(C)S(=O)(=O)N1CCC(Oc2cccc(C(=O)N3CCCCCCC3)c2)CC1` to `CC(=O)N1CCN(S(=O)(=O)c2cccc(C(=O)NCCC3=CCCCC3)c2)CC1`, the “hERG current change (%, negative = inhibition) at 1uM” value falls from 11.7% to 1.3%.

First: CC(=O)N1CCN(C(=O)c2ccc(Cl)c(S(=O)(=O)N3CCc4ccccc43)c2)CC1
Second: CC1CCCC(C)N1C(=O)c1ccc2c(c1)S(=O)(=O)c1ccccc1C2=O (stereo not shown)
The “hERG current change (%, negative = inhibition) at 1uM” value of the first is higher: -0.541% for the first, -9.96% for the second.

Compared with `Cc1ccc(C(c2c(C)n(C)n(-c3ccccc3)c2=O)c2c(C)n(C)n(-c3ccccc3)c2=O)s1`, `O=c1c2ccccc2nc(Cc2ccccc2)n1-c1ccccc1` is higher in “hERG current change (%, negative = inhibition) at 1uM” value: 4.02% for the first, 6.43% for the second.

First: O=C(N/N=C/c1ccccc1)c1n[nH]c2c1CCCC2
Second: O=C(Nc1ccccc1)N1CCCc2ccccc21
The “hERG current change (%, negative = inhibition) at 1uM” value of the first is higher: 12.2% for the first, -28.2% for the second.

First: C=Cc1ccc(CSc2cc(C)nc3nc(C)nn23)cc1
Second: Cc1nc2nc(SCC(=O)NCCCN3CCCCC3)nn2c(C)c1Cc1ccccc1
The “hERG current change (%, negative = inhibition) at 1uM” value of the first is lower: 0.781% for the first, 9.92% for the second.

Going from `O=C(CN1C(=O)NC2(CCCCCC2)C1=O)Nc1ccc(Cl)cc1Cl` to `CC(=O)Nc1ccc(S(=O)(=O)NCC(=O)OCC(=O)N2CCCCCC2)cc1`, the “hERG current change (%, negative = inhibition) at 1uM” value falls from 12.6% to 11.6%.

Going from `CCCCCC(=O)NC(NC(=S)N1CCOCC1)C(Cl)(Cl)Cl` (stereo not shown) to `CCCCCCC(=O)N1CCN(c2cc3c(cc2F)c(=O)c(C(=O)O)cn3CC)CC1`, the “hERG current change (%, negative = inhibition) at 1uM” value falls from 9.9% to 6.27%.

Compared with `Cl.Cn1nnnc1SCCNCc1ccccc1F`, `COC(=O)c1nnn(CC(=O)NC(=O)Nc2ccccc2F)c1C(=O)OC` is higher in “hERG current change (%, negative = inhibition) at 1uM” value: 11.1% for the first, 14.7% for the second.

Compared with `COc1ccc(C(=O)NCCN2CCCC2)cc1[N+](=O)[O-]`, `COc1ccc(C(CNC(=O)COc2ccccc2C)N2CCCCC2)cc1` (stereo not shown) is lower in “hERG current change (%, negative = inhibition) at 1uM” value: 2.2% for the first, -1.82% for the second.

Going from `CC(OC(=O)c1nsc(Cl)c1Cl)C(=O)NC(C)(C)C` (stereo not shown) to `COc1ccc(C(=O)NC(=S)N2CCNC(=O)C2CC(=O)OC(C)C)cc1` (stereo not shown), the “hERG current change (%, negative = inhibition) at 1uM” value falls from 13.3% to 11.6%.

Compared with `Cc1ccnc(NC(=O)CC(NC(=O)c2ccccc2Cl)c2ccccc2)c1` (stereo not shown), `COC(=O)c1ccccc1NC(=O)CSc1nc2ncccc2[nH]1` is higher in “hERG current change (%, negative = inhibition) at 1uM” value: -8.36% for the first, 9.06% for the second.

Going from `COc1ccc(C(=O)NC(C)c2nnc(SCC(=O)NC3CCCC3)n2C)cc1` (stereo not shown) to `CC(C)(C)NC(=O)CSc1nnc(-c2ccccc2)c(-c2ccccc2)n1`, the “hERG current change (%, negative = inhibition) at 1uM” value falls from 11.9% to 8.95%.

Compared with `Cn1cccc1C(=O)/C(C#N)=C/c1ccc(F)cc1`, `O=C(NC1CCCN(CCc2ccccc2)C1)c1c(F)cccc1F` (stereo not shown) is lower in “hERG current change (%, negative = inhibition) at 1uM” value: 9.48% for the first, -5.35% for the second.

Compared with `COC(=O)C1C(=O)c2c([nH]c(C(=O)OC3CCCC3)c2C)CC1C` (stereo not shown), `CC1(C)CC(=O)C=C(c2cccc(Cl)c2O)C1` is higher in “hERG current change (%, negative = inhibition) at 1uM” value: 1.87% for the first, 7.13% for the second.

Going from `O=C(Nc1ccc(Cl)cn1)c1ccc(COc2ccccc2Br)o1` to `COc1ccc(CC(=O)c2c(O)cc(O)cc2O)cc1OC`, the “hERG current change (%, negative = inhibition) at 1uM” value falls from 12.2% to 12.1%.

With `CCOCCCn1c(=O)c2ccccc2n2c(=S)[nH]nc12` the “hERG current change (%, negative = inhibition) at 1uM” value was 14.2%.
